Results as given in paper PMC4336329 (PLoS ONE, 2015).
Out of some 310,000 compounds screened, about 14,000 (4.5%) showed an effect of 50% or more. The effect is printed as a negative number. The list shows a part of the results.

molecular target: human ether-à-go-go-related gene (hERG) potassium channel (human, UniProt Q12809); assay: primary screen, population patch clamp on CHO cells stably expressing hERG
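Further: peak tail current of the secondary pulse compared with the same well before compound.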

Chain of human ether-à-go-go-related gene (hERG) potassium channel (Q12809 whole entry, looked up): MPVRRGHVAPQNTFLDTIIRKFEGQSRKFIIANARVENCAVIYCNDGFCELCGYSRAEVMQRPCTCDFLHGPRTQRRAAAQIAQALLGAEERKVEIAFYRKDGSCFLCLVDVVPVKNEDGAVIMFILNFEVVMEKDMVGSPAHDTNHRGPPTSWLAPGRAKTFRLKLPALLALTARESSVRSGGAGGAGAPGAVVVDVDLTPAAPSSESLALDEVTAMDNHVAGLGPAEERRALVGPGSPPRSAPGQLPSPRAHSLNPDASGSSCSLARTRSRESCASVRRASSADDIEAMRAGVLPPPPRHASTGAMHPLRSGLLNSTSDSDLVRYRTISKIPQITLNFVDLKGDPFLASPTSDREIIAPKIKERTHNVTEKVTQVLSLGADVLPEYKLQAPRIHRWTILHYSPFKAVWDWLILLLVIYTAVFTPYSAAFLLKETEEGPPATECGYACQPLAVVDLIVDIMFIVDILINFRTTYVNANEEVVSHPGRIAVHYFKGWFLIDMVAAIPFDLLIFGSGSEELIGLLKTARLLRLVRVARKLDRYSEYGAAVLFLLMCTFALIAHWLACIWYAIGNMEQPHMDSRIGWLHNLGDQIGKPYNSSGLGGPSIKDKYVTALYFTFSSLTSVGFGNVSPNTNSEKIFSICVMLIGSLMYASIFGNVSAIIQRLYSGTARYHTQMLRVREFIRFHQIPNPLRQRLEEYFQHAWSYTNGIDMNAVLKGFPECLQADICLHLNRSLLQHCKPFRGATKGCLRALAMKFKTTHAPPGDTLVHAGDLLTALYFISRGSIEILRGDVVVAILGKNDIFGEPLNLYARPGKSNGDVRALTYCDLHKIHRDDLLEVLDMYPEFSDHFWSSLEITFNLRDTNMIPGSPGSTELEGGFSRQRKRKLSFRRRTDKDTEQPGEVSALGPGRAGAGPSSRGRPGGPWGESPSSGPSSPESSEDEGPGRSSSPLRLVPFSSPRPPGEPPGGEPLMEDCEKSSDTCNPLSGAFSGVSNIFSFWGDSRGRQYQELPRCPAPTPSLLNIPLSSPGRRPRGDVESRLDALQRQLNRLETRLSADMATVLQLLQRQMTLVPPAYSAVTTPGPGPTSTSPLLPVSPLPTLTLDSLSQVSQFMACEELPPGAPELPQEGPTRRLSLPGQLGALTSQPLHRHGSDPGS

Structure (SMILES)	hERG current change (%, negative = inhibition) at 10uM [%]
c1csc(-c2nc3ccccc3s2)c1	-45.1
Cc1cccc(CN2C(=O)[C@@H]3Cc4c([nH]c5ccccc45)C(C)(C)N3C2=O)c1	-0.614
Cc1ccc(-c2ccc(/C=N/NC(=O)CN3CCCC3)o2)cc1Cl	-90.2
Cc1cc(OC(C)C(=O)NNC(=O)Nc2ccc(F)cc2F)cc(C)c1Cl (centres unmarked)	22.3
O=c1ccnc(SCCc2ccccc2)[nH]1	17.2
CCOC(=O)c1ccc(S(=O)(=O)N2CCN(CC(O)COc3cccc(C(C)=O)c3)CC2)cc1.O=C(O)C(=O)O (centres unmarked)	-6.64
CSC1=C(C#N)C(C)C2=C(CC(C)(C)CC2=O)N1 (centres unmarked)	-0.415
COc1ccc(NC(=O)CSc2nnc(C3CC3)n2-c2ccccc2)cc1	-18
CC(C)Cn1c2c(c(O)c(C(=O)Nc3ncccc3O)c1=O)CCCC2	-6.01
Cc1ccc(-n2nnnc2-c2nc3ccccc3s2)cc1	42.3
CCc1ccc(-c2csc(NC(=O)C3=NN(c4ccccc4)C(=O)CC3)n2)cc1	16.8
Cc1c(N2CCCC2)cc2c(c1NC(=O)c1ccccc1Cl)C(C)(C)CC2(C)C	-25.6
O=C(Nc1ccccc1)NN1CC(=O)N(c2ccc(Cl)cc2)CC1=O	17.8
CCC(C)(C)NC(=O)C(c1cccn1C)N(Cc1ccc(OC)cc1)C(=O)Cn1nnc2ccccc21 (centres unmarked)	-3.98
CN(C)CCCNC(=O)c1cc(C(=O)c2cccc(Cl)c2Cl)c[nH]1	-51
O=[N+]([O-])c1ccc(Oc2ccc(-c3nnco3)cc2)c(Cl)c1	-8.14
COc1ccc(-c2noc(N3CCCC(C(=O)Nc4ccc(F)cc4F)C3)n2)cc1 (centres unmarked)	-37
CC(C)[C@H](N)c1nnc(SCc2ccc(Cl)cc2)o1.Cl	-14.6
Clc1ccc(Cc2nnc(-c3ccccc3Br)o2)cc1	-1.47

Structure (SMILES)	hERG current change (%, negative = inhibition) at 10uM [%]
COc1ccc(S(=O)(=O)CCC(=O)N(C)c2ccc(OC)cc2OC)cc1	-12.8
COc1ccc(NC(=O)C2CCCC2)cn1	16.2
Cn1c(=O)c2c(ncn2CC(N)=O)n(C)c1=O	13.9
Cc1cc(C)cc(Nc2nc3c(S(=O)(=O)c4ccccc4)nnn3c3ccccc23)c1	6.62
Cc1ccc(N(CC(=O)Nc2c(C)n(C)n(-c3ccccc3)c2=O)S(C)(=O)=O)cc1C	16
COC(=O)c1ccccc1NC(=O)c1ccc2c(c1)OCCCO2	8.83
CCCc1cc(=O)oc2cc(C)cc(OCC(=O)NCc3ccccn3)c12	-33.7
CC1CN(c2ccc(NC(=S)Nc3ccc(N4CC(C)OC(C)C4)cc3)cc2)CC(C)O1 (centres unmarked)	19.5
COc1ccccc1CC1(C)NC(=O)N(CC(=O)Nc2cc(C)on2)C1=O (centres unmarked)	7.53
C[C@@H](N)Cc1cnc[nH]1.Cl	15.5
O=C(CCCN1C(=O)/C(=C\c2ccccc2)SC1=S)Nc1ccccc1O	36.3
Cc1sc2nc(CN3CCCC3)nc(N3CCN(S(=O)(=O)c4cccc(F)c4)CC3)c2c1C	-70.1
CCc1nn(CC(=O)NCc2ccccc2Cl)c(=O)c2cccn12	11.7
COC(=O)c1ccc(NC(=O)Nc2ccc(C)cc2)cc1	-0.0581
CCOC(=O)Cc1csc(NC(=S)NC(=O)c2ccc(F)cc2)n1	11.9
COc1cc(CNC2CCCCCCC2)ccc1OCC(N)=O	-0.113
Cc1cc(=O)oc2ccc(OC(=O)CC(C)C)cc12	26.6
CC1CCC2C(=O)N(c3ccc(C(=O)NCc4ccccc4)cc3)C(=O)C2C1 (centres unmarked)	5.83
CN(CC(=O)N1CC=C(c2ccccc2)CC1)S(=O)(=O)c1ccc2c(c1)c(=O)n(C)c(=O)n2C	-30.2

Structure (SMILES)	hERG current change (%, negative = inhibition) at 10uM [%]
O=C(NCCNC(=O)c1ccccc1Br)c1cccnc1	24
CCO[C@H]1OC(C(=O)O)=C[C@@H](C2CCCCC2)[C@@H]1CCCO	12.5
O=C(CNC(=O)OCc1ccccc1)NC1CCCCCC1	22.6
Cc1cnc(C(=O)OCC(=O)c2csc(N3CCCCC3)n2)cn1	2.53
Cn1nc(-c2ccc(OCC(=O)Nc3ccccc3)cc2)c2ccccc2c1=O	8.71
Cc1ccc(C(C(=O)NC2CCCC2)N(C(=O)CNC(=O)c2cccs2)c2cccnc2)o1 (centres unmarked)	-11.1
O=C(Nc1nnc(SCCN2CCOCC2)s1)C1CC(=O)N(c2ccccc2)C1 (centres unmarked)	3.77
CCOC(=O)c1c(/N=C/C2C(=O)NC(=S)NC2=O)sc(C)c1C	11.4
Cc1ccc(S(=O)(=O)n2ccc3c(OCCOCCNCc4ccc(F)cc4)cccc32)cc1	-5.55
CCc1cc(-c2n[nH]c(=S)n2Cc2ccccc2)cs1	7.7
O=S(=O)(C/C(=C/CO)S(=O)(=O)c1ccccc1)c1ccccc1	-1.88
COc1cccc(NC(=O)CN(C)C(=O)c2c(-c3ccccc3)noc2C)c1	4.01
C/C(=N\NC(=S)NC1CCCCC1)c1ccc(Cl)c(Cl)c1	4.06
CCOc1ccc(/C=N/O)cc1	16.8
CN(CC(=O)O/N=C(\N)c1ccc(Br)cc1)S(=O)(=O)c1ccccc1	7.66
CC(=O)Cc1nsc(NC(=O)c2ccc(-c3cc(C(F)(F)F)ccc3Cl)o2)n1	22.7
Cc1cccc2nc(C(=O)Nc3cc(Cl)ccc3-n3cncn3)cn12	0.864
CCOc1ccc(C(CC(=O)O)NC(=O)COc2ccccc2)cc1 (centres unmarked)	11.8
